The supplement of paper PMC12217912
This is one part of the list. The full chains were built here from the parent and the listed change. Inactive controls read about 0.05.

B1: TEV protease; numbered along this chain (parent)
chain: MGESLFKGPRDYNPISSSICHLTNESDGHTTSLYGIGFGPFIITNKHLFRRNNGTLVVQSLHGVFKVKDTTTLQQHLVDGRDMIIIRMPKDFPPFPQKLKFREPQREERICLVTTNFQTKSMSSMVSDTSCTFPSGDGIFWKHWIQTKDGQCGSPLVSTRDGFIVGIHSASNFTNTNNYFTSVPKNFMELLTNQEAQQWVSGWRLNADSVLWGGHKVFMVKPEEPFQPVKEATQL

Variants of: B1
Test: raw area under fraction-flipped curve 0-4 h after induction (AUC4h, not background-subtracted), DNA-recorder readout of cleavage of the substrate (dimensionless); higher = more cleavage of the substrate by the protease variant
Details: temperature: 34 °C; time window: 0-4 h after rhamnose induction
Protocol: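 In vivo DNA recorder in E. coli TOP10(DE3) ΔrhaA at 34 °C. Each TEVp single-site mutant (parent TEVp 0) is paired with a single-site variant of the 7-mer TEVs (canonical ENLYFQ|S). The substrate sits between flexible linkers in a Bxb1-sfGFP-TEVs-SsrA fusion, so cleavage stabilises Bxb1 and speeds flipping of a recombination array, read by NGS. The value is the raw area under the fraction-flipped curve over 0-4 h after rhamnose induction (AUC4h), with ≥20 reads per time point. It is not background-subtracted; inactive controls average about 0.047.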
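Note: Bxb1 expression induced with 0.2% (w/v) L-rhamnose at OD600 near 0.5, cultures sampled hourly, flipped fraction per protease–substrate barcode pair counted by paired-end Illumina sequencing.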

Variant | area with substrate ENLYFCS | area with substrate ENLYFDS | area with substrate ENLYFES | area with substrate ENLYFFS | area with substrate ENLYFGS | area with substrate ENLYFHS | area with substrate ENLYFIS | area with substrate ENLYFKS | area with substrate ENLYFMS | area with substrate ENLYFNS | area with substrate ENLYFPS | area with substrate ENLYFRS | area with substrate ENLYFTS | area with substrate ENLYFVS | area with substrate ENLYFWS | area with substrate ENLYFYS | area with substrate ENLYFLS | area with substrate ENLYFSS | area with substrate ENLYFAS
L22Y | 0.05 | 0.0884 | 0.0567 | 0.0558 | 0.0318 | 0.0269 | 0.0521 | 0.0533 | 0.0483 | 0.0594 | 0.0512 | 0.0468 | 0.0461 | 0.0527 | 0.0501 | 0.0428 |  |  | 
L22H | 0.0378 | 0.0581 | 0.0439 | 0.0435 | 0.06 | 0.0398 | 0.0524 | 0.0442 | 0.0465 | 0.0622 | 0.0488 | 0.0387 | 0.0365 | 0.0683 | 0.0421 | 0.0592 | 0.0417 | 0.0513 | 
F226E | 0.0691 | 0.0448 | 0.0696 | 0.0556 | 0.0518 | 0.0625 | 0.0532 | 0.0477 | 0.0535 | 0.0701 | 0.0511 | 0.0837 | 0.0683 |  | 0.0486 | 0.0507 |  | 0.0714 | 0.0574
F226Q |  | 0.0731 | 0.0738 | 0.0565 | 0.0555 | 0.0401 | 0.064 | 0.0565 | 0.0697 |  |  |  |  | 0.0627 | 0.0631 | 0.0355 | 0.0532 |  | 0.0585
F226G |  | 0.0543 | 0.0738 |  | 0.054 |  | 0.0571 | 0.0531 | 0.0684 | 0.0795 | 0.057 | 0.0747 | 0.0481 | 0.0647 | 0.0626 | 0.0596 | 0.0572 | 0.058 | 0.0475
Y12N | 0.0577 |  | 0.0678 | 0.0811 |  |  | 0.0576 | 0.0851 | 0.0673 | 0.0608 | 0.0806 |  |  | 0.0429 | 0.0427 | 0.0533 |  |  | 
I15M | 0.0569 |  |  | 0.082 |  |  | 0.0573 |  | 0.0569 |  | 0.0869 | 0.0715 | 0.0608 |  |  | 0.0648 |  |  | 
I19W | 0.0536 |  | 0.0516 | 0.0777 | 0.0461 | 0.0412 |  |  | 0.0521 |  | 0.0498 |  | 0.0417 |  | 0.0408 | 0.0385 |  |  | 
T30R | 0.0506 |  | 0.0661 | 0.0667 | 0.0597 |  | 0.0551 |  | 0.0626 | 0.0577 | 0.0647 |  | 0.0538 |  | 0.0464 |  | 0.0623 | 0.0542 | 
H29P | 0.0671 | 0.0481 | 0.0621 | 0.0545 | 0.0566 | 0.0534 | 0.0445 |  | 0.0642 | 0.064 | 0.0511 | 0.0732 | 0.0556 |  | 0.0666 |  | 0.0378 |  | 
H29T | 0.0645 |  |  | 0.0705 |  |  | 0.0576 | 0.0682 | 0.0754 | 0.0542 | 0.0585 | 0.0597 | 0.0611 | 0.063 |  | 0.0527 | 0.0517 |  | 
V229E |  | 0.0636 | 0.0441 | 0.0471 |  | 0.0736 | 0.0547 | 0.049 | 0.0685 | 0.0628 | 0.0536 | 0.052 | 0.0615 | 0.0527 | 0.0523 | 0.0579 | 0.074 |  | 0.0581
N13F | 0.0628 | 0.061 | 0.0568 | 0.0632 |  | 0.0564 | 0.0555 | 0.0771 | 0.0627 | 0.0629 | 0.0512 | 0.0507 | 0.0555 | 0.0582 | 0.0753 | 0.0591 | 0.0623 |  | 
